The whole screen tested about 360,000 compounds, of which about 7,500 (2.1%) were called active. Inconclusive means that the source gave no clear call. Such entries were picked first, then a sample of the others. The call rests on the fitted dose curve; in most records, active means well fitted cell-killing curve with a large enough effect; inconclusive means small, poorly fitted or top-dose-only effect, or effect the other way, or another doubt; inactive means no such curve, though single readings can be large or run the other way. No potency is given beside an inconclusive call; the fits are too rough.
Test: qHTS for induction of synthetic lethality in tumor cells producing 2HG: qHTS for the HT-1080-IDH1KD cell line;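 on activity, negative = toxicity: 0% = DMSO wells and -100% = cell-free medium wells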
Conditions: HT-1080 IDH1 knockdown viability, ATP luminescence, 48 h; activity, negative = toxicity: at 46.1 µM (top of the series) unless noted
Outline: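 Luminescent ATP read-out (CellTiter-Glo, 10 min at room temperature) after 48 h compound exposure at 37 °C gave viability of IDH1-knockdown HT-1080 cells. Activity was normalised to DMSO and cell-free wells, then fitted as concentration-response curves.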
Potency means the concentration at half of the fitted maximal effect; tags describe the fitted curve by direction and shape.

**Q.** For `CC(C)(C)c1csc(NC(=O)Nc2ccccc2)n1`, which Potency is on record?
**A.** inconclusive [cytotoxic, single point]

**Q.** For `CCOC(=O)N1CCN(S(=O)(=O)c2ccc(C(=O)NNc3nc4ccc(Cl)cc4s3)cc2)CC1`, which Potency is on record?
**A.** inconclusive [cytotoxic, partial curve]

**Q.** For `O=C(N/N=C/c1cccnc1)c1ccc(CN2c3cccc4cccc(c34)S2(=O)=O)cc1`, which Potency is on record?
**A.** inconclusive [cytotoxic, single point]

**Q.** For `Cc1cc(C)nc(NC(N)=NCCc2c[nH]c3ccccc23)n1`, which Potency is on record?
**A.** inconclusive [cytotoxic, single point]

**Q.** For `C#CCN(C[C@@H]1[C@@H](OC(=O)NC2CCCC2)[C@@H](OC(=O)NC2CCCC2)Cn2c(=O)ccc(=O)n21)S(=O)(=O)c1ccc(C)cc1`, which Potency is on record?
**A.** active: 8.2 µM

**Q.** With `Cc1cc(NC(=O)c2cc([N+](=O)[O-])ccc2Cl)no1` as the compound, how does the Potency read?
**A.** inconclusive [cytotoxic, single point]

**Q.** For `CCOc1ccc2[nH]c(C(=O)N/N=C/c3cccc(OC)c3OC)cc2c1`, which Potency is on record?
**A.** inconclusive [cytotoxic, single point]

**Q.** For `CC(C)(C)C(=O)Nc1nnc(COc2ccc(Cl)cc2)s1`, which Potency is on record?
**A.** inconclusive [cytotoxic, partial curve, poor fit]

**Q.** For `Cc1nnc(NCc2n[nH]c(=O)c3ccccc23)c2ccccc12`, which Potency is on record?
**A.** active: 11.2 µM

**Q.** With `COc1ccc(-c2ccnc(-c3ccc(O)cc3)n2)cc1` as the compound, how does the Potency read?
**A.** active: 1.46 µM

**Q.** With `CCN1CCN(c2cc(C(C)C)nc3c(-c4ccccc4)c(C)nn23)CC1` as the compound, how does the Potency read?
**A.** active: 16.4 µM

**Q.** With `CCC1Oc2ccccc2N(CC(=O)NCCCN2CCN(c3ccc(OC)cc3)CC2)C1=O` (stereo not given) as the compound, how does the “activity, negative = toxicity” value read?
**A.** inactive: -10.2%

**Q.** With `Cc1ccc(-n2nc(C(=O)NCc3ccco3)c3c4ccccc4n(C)c3c2=O)cc1` as the compound, how does the Potency read?
**A.** inconclusive [cytotoxic, single point]

**Q.** For `CCOC(=O)CN1N=C(/C=C/c2ccc(C(C)C)cc2)CCC1=O`, which “activity, negative = toxicity” value is on record?
**A.** inactive: -11.1%

**Q.** With `Cc1ccc(C)c(S(=O)(=O)N2CCN(C(=O)[C@@H](NC(=O)c3ccc(F)cc3)C(C)C)CC2)c1` as the compound, how does the “activity, negative = toxicity” value read?
**A.** inactive: -12.4%

**Q.** With `NC(CCc1ccccc1)c1csc(Nc2ccc(C(F)(F)F)cn2)n1` (stereo not given) as the compound, how does the Potency read?
**A.** inconclusive [cytotoxic, single point]

**Q.** Which Potency does the source give for `CCOC(=O)c1sc(NC(=O)c2ccc(OC(C)=O)cc2)nc1C` here?
**A.** active: 29.1 µM

**Q.** With `O=C(CN1CCN(C(=O)C2CCCO2)CC1)Nc1cc(C(F)(F)F)ccc1Cl` (stereo not given) as the compound, how does the “activity, negative = toxicity” value read?
**A.** inactive: 0.507%

**Q.** With `CCOC(=O)c1ccc(NC(=O)CN2CCN(C(=O)c3ccco3)CC2)cc1` as the compound, how does the “activity, negative = toxicity” value read?
**A.** inactive: -0.851%

**Q.** For `COc1ccccc1CNS(=O)(=O)c1ccc(-c2cnc(C3CC3)o2)cc1`, which Potency is on record?
**A.** inconclusive [cytotoxic, full curve]

— PubChem BioAssay AID686971 (National Center for Advancing Translational Sciences (NCATS), 2013)
